In all, about 18,000 sequences were measured (“TetR repression strength (sort-seq, GFP reporter)”: median about 0.23, highest 2% from about 0.68 on). The list shows a part of the results.
What follows are sequences tested against TetR (class B, Tn10) (UniProt P04483) (assay: TetR repression strength (sort-seq, GFP reporter) (relative to tetO2 = 1); higher = stronger repression). Conditions: E. coli.
In short: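 E. coli SIG10-MAX carried a low-copy plasmid library with eight randomized operator positions between a constitutive promoter and sfGFP, with TetR constitutively expressed. Cells grew 5 h at 37 °C in LB with 50 µg/mL chloramphenicol, then 10^6 cells were FACS-sorted into 13 fluorescence bins, each Illumina-sequenced. Repression strength is the top bin index plus one minus the read-weighted mean bin, divided by the wild-type operator value. Three independent transformations; variants with ≥30 reads in all replicates and CV ≤0.5 were averaged.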

UniProt P04483, sequence (P04483 whole entry): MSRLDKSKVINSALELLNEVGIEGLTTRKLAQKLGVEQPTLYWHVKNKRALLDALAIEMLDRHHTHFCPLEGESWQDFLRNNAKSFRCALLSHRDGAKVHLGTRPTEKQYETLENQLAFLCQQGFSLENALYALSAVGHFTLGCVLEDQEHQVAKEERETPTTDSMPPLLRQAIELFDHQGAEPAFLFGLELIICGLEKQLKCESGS

Compared with TCCCGCGTAGTGGCCGAGA, TCCCAACTAGTCATCGAGA is higher in TetR repression strength: 0.226 for the first, 0.434 for the second.

Compared with TCCCGGTCAGTGGTAGAGA, TCCCTTGAAGTGTTCGAGA is lower in TetR repression strength: 0.435 for the first, 0.0498 for the second.

First: TCCCATGCAGTGTATGAGA
Second: TCCCCGGGAGTTCAAGAGA
The TetR repression strength of the first is lower: 0.128 for the first, 0.362 for the second.

Compared with TCCCAACTAGTGAGTGAGA, TCCCGTGTAGTGGAGGAGA is higher in TetR repression strength: 0.325 for the first, 0.326 for the second.

First: TCCCTACGAGTTAGTGAGA
Second: TCCCCACCAGTAGTGGAGA
The TetR repression strength of the first is lower: 0.207 for the first, 0.268 for the second.

Compared with TCCCAGCAAGTATGCGAGA, TCCCTAGCAGTGCGCGAGA is lower in TetR repression strength: 0.282 for the first, 0.203 for the second.

Going from TCCCTAAAAGTGGAAGAGA to TCCCGGGGAGTAGGTGAGA, the TetR repression strength rises from 0.104 to 0.194.

Going from TCCCAGGCAGTGGCGGAGA to TCCCTATCAGTTCTTGAGA, the TetR repression strength rises from 0.204 to 0.539.

First: TCCCGTTTAGTGGCAGAGA
Second: TCCCATACAGTGTTCGAGA
The TetR repression strength of the first is lower: 0.248 for the first, 0.296 for the second.

Compared with TCCCCTGGAGTTAGCGAGA, TCCCATAAAGTTGCAGAGA is higher in TetR repression strength: 0.281 for the first, 0.337 for the second.

Going from TCCCTTCCAGTAAAGGAGA to TCCCTTCGAGTACGGGAGA, the TetR repression strength rises from 0.0273 to 0.258.

Going from TCCCCGGTAGTCGGTGAGA to TCCCATGTAGTGCTAGAGA, the TetR repression strength falls from 0.24 to 0.

Going from TCCCTCCTAGTAAGTGAGA to TCCCGTGTAGTCTGAGAGA, the TetR repression strength falls from 0.283 to 0.254.

Compared with TCCCGCGGAGTCCAGGAGA, TCCCGCAAAGTAGTAGAGA is higher in TetR repression strength: 0.177 for the first, 0.22 for the second.

Compared with TCCCCGATAGTCCGTGAGA, TCCCTCTCAGTCTCTGAGA is higher in TetR repression strength: 0.207 for the first, 0.237 for the second.

Going from TCCCTCGAAGTTGAGGAGA to TCCCTGAAAGTCGGTGAGA, the TetR repression strength rises from 0.116 to 0.166.

Going from TCCCCGCGAGTAAGGGAGA to TCCCTACAAGTGGCGGAGA, the TetR repression strength falls from 0.239 to 0.136.

Compared with TCCCTTGAAGTCGAGGAGA, TCCCATGCAGTTGTAGAGA is higher in TetR repression strength: 0.183 for the first, 0.495 for the second.

First: TCCCGCGCAGTATAGGAGA
Second: TCCCGCCCAGTGTCTGAGA
The TetR repression strength of the first is lower: 0.0706 for the first, 0.505 for the second.

Compared with TCCCACAGAGTGACTGAGA, TCCCGTGGAGTTGAGGAGA is lower in TetR repression strength: 0.275 for the first, 0.221 for the second.

Compared with TCCCACGTAGTTACCGAGA, TCCCGAATAGTTCGGGAGA is higher in TetR repression strength: 0.155 for the first, 0.329 for the second.

Going from TCCCTGTGAGTGGTAGAGA to TCCCGCCAAGTGTGAGAGA, the TetR repression strength falls from 0.0877 to 0.0711.

Compared with TCCCCGCGAGTTCCGGAGA, TCCCAGGGAGTAGATGAGA is lower in TetR repression strength: 0.305 for the first, 0.28 for the second.

Compared with TCCCGAATAGTATGGGAGA, TCCCGTTTAGTGTTAGAGA is lower in TetR repression strength: 0.351 for the first, 0.222 for the second.

Going from TCCCGATAAGTGTGAGAGA to TCCCTCATAGTAATAGAGA, the TetR repression strength rises from 0 to 0.29.

Going from TCCCAAGGAGTCTATGAGA to TCCCCCCTAGTGCGCGAGA, the TetR repression strength rises from 0.227 to 0.26.

First: TCCCGAGGAGTTAACGAGA
Second: TCCCCGTTAGTCCCGGAGA
The TetR repression strength of the first is higher: 0.535 for the first, 0.0528 for the second.

Going from TCCCAGCGAGTGAAGGAGA to TCCCCTACAGTAGCTGAGA, the TetR repression strength falls from 0.614 to 0.332.

Compared with TCCCGACTAGTTATCGAGA, TCCCATGTAGTCTCGGAGA is higher in TetR repression strength: 0.197 for the first, 0.248 for the second.

Going from TCCCATCTAGTCCTCGAGA to TCCCGAAAAGTGTAAGAGA, the TetR repression strength falls from 0.428 to 0.3.

First: TCCCGACGAGTAGCAGAGA
Second: TCCCCGCGAGTGAGAGAGA
The TetR repression strength of the first is higher: 0.486 for the first, 0.205 for the second.

First: TCCCTGCCAGTGGGGGAGA
Second: TCCCGGCCAGTTGAAGAGA
The TetR repression strength of the first is higher: 0.174 for the first, 0.144 for the second.

Compared with TCCCGCCCAGTCAGGGAGA, TCCCGACCAGTTCGGGAGA is lower in TetR repression strength: 0.292 for the first, 0.272 for the second.

Compared with TCCCCACGAGTGGATGAGA, TCCCGCTAAGTGGTAGAGA is lower in TetR repression strength: 0.382 for the first, 0.372 for the second.

Going from TCCCATTAAGTTGCGGAGA to TCCCACCCAGTGGACGAGA, the TetR repression strength rises from 0 to 0.339.

Going from TCCCAGGGAGTCTTGGAGA to TCCCCCGGAGTGCCAGAGA, the TetR repression strength falls from 0.263 to 0.22.

Going from TCCCCTATAGTAAGGGAGA to TCCCTGCGAGTCCTGGAGA, the TetR repression strength falls from 0.382 to 0.207.

Going from TCCCAAACAGTCGAAGAGA to TCCCTTCTAGTCGTAGAGA, the TetR repression strength rises from 0.296 to 0.309.

First: TCCCAGCGAGTTTGGGAGA
Second: TCCCTACTAGTTGCGGAGA
The TetR repression strength of the first is lower: 0.162 for the first, 0.299 for the second.

Going from TCCCGATCAGTATTTGAGA to TCCCGTAGAGTTAGGGAGA, the TetR repression strength falls from 0.259 to 0.235.

Going from TCCCGGCTAGTTTCCGAGA to TCCCGATTAGTTGCCGAGA, the TetR repression strength falls from 0.265 to 0.231.

Compared with TCCCGGATAGTCGGGGAGA, TCCCGCTTAGTGCGGGAGA is higher in TetR repression strength: 0.135 for the first, 0.265 for the second.

Compared with TCCCATATAGTCTGCGAGA, TCCCTCTTAGTGGTTGAGA is lower in TetR repression strength: 0.213 for the first, 0.152 for the second.

Compared with TCCCCTGCAGTTGGGGAGA, TCCCAGTTAGTGGCGGAGA is lower in TetR repression strength: 0.185 for the first, 0.0987 for the second.

First: TCCCATCGAGTGCGTGAGA
Second: TCCCTCCGAGTTGTCGAGA
The TetR repression strength of the first is higher: 0.277 for the first, 0.237 for the second.

Compared with TCCCGTGCAGTAAGAGAGA, TCCCGGCCAGTAAATGAGA is lower in TetR repression strength: 0.345 for the first, 0.318 for the second.

First: TCCCTATAAGTCCTCGAGA
Second: TCCCGCGGAGTCGAGGAGA
The TetR repression strength of the first is higher: 0.529 for the first, 0.258 for the second.

Going from TCCCTCTGAGTACTGGAGA to TCCCCCTGAGTCTTTGAGA, the TetR repression strength rises from 0.223 to 0.312.

Going from TCCCATTCAGTTTTAGAGA to TCCCCCCTAGTACGCGAGA, the TetR repression strength falls from 0.319 to 0.143.

Compared with TCCCCCCGAGTGACAGAGA, TCCCCAGGAGTACTTGAGA is lower in TetR repression strength: 0.626 for the first, 0.223 for the second.

First: TCCCGAGGAGTTATGGAGA
Second: TCCCTATAAGTCAAAGAGA
The TetR repression strength of the first is lower: 0.189 for the first, 0.663 for the second.

— a collection of fitness landscapes (doi:10.1038/s41467-024-54723-y)
